In patent US11178870B2 (priority 2017, dated 2021):

Legend:
Assay type in all cases: in vivo
Plasmopara viticola = test: Test Example G: Downy mildew on vine; conditions: for control value, Test G (downy mildew on vine): 250 ppm sprayed (2.5 ml/pot) before inoculation, assessed 7 to 10 days after inoculation; for Test G control value: Downy mildew on vine, 250 ppm sprayed, 7 to 10 days after inoculation
Puccinia recondita = test: Test Example E: Brown rust on wheat; conditions: for control value, Test E (brown rust on wheat): Table 7, Test E; for Test E control value: Brown rust on wheat
[1] = system: Blumeria graminis f. sp. hordei; test: Test Example D: Powdery mildew on barley; conditions: for control value, Test D (powdery mildew on barley): Table 7, Test D; for Test D control value: Powdery mildew on barley
Alternaia brassicicola = test: Test Example C: Alternaria sooty spot on cabbage; conditions: for control value, Test C (Alternaria sooty spot on cabbage): Table 7, Test C; for Test C control value: Alternaria sooty spot on cabbage
Botrytis cinerea = test: Test Example B: Gray mold on tomato; conditions: for control value, Test B (gray mold on tomato): Table 7, Test B; for Test B control value: Gray mold on tomato
[2] = class of control value, Table 7

Row | Compound | control value, Test G (downy mildew on vine) (Plasmopara viticola) | control value, Test E (brown rust on wheat) (Puccinia recondita) | control value, Test D (powdery mildew on barley) [1] | control value, Test C (Alternaria sooty spot on cabbage) (Alternaia brassicicola) | control value, Test B (gray mold on tomato) (Botrytis cinerea) | other results
1 | CCn1c(-c2c(F)cccc2F)c(-n2cc(F)cn2)cc(Br)c1=O [Compound 320] | L (L shows the control value of 50% or less) | H (H shows the control value more than 50%) | H (H shows the control value more than 50%) | H (H shows the control value more than 50%) | H (H shows the control value more than 50%) | 
2 | Cc1cnn(-c2cc(Br)c(=O)n(CC(F)F)c2-c2ccccc2Cl)c1Cl [Compound 230] | H (H shows the control value more than 50%) | H (H shows the control value more than 50%) | H (H shows the control value more than 50%) | H (H shows the control value more than 50%) | H (H shows the control value more than 50%) | 
3 | CCn1c(-c2c(F)cc(F)cc2F)c(-n2cnc(Cl)n2)cc(Br)c1=O [Compound 262] | L (L shows the control value of 50% or less) | H (H shows the control value more than 50%) | H (H shows the control value more than 50%) | H (H shows the control value more than 50%) | H (H shows the control value more than 50%) | 
4 | CCn1c(-c2ccccc2Br)c(-n2ncc(C)c2Cl)cc(Cl)c1=O [Compound 272] | L (L shows the control value of 50% or less) | H (H shows the control value more than 50%) | H (H shows the control value more than 50%) | H (H shows the control value more than 50%) | H (H shows the control value more than 50%) | 
5 | O=c1c(Cl)cc(-c2cccnc2Cl)c(-c2c(F)cccc2F)n1CC(F)F [Compound 57] |  |  |  |  |  | Test G control value (Plasmopara viticola; 2.5 ml/pot): L (L shows the control value of 50% or less); Test E control value (Puccinia recondita): H (H shows the control value more than 50%); Test D control value [1]: H (H shows the control value more than 50%); Test C control value (Alternaia brassicicola): H (H shows the control value more than 50%); Test B control value (Botrytis cinerea): H (H shows the control value more than 50%)
6 | CCn1c(-c2c(F)cccc2F)c(-c2ccsc2Cl)ccc1=O [Compound 296] | H (H shows the control value more than 50%) | H (H shows the control value more than 50%) | H (H shows the control value more than 50%) | H (H shows the control value more than 50%) | H (H shows the control value more than 50%) | 
7 | CCn1c(-c2c(F)cccc2F)c(-n2cc(Cl)cn2)cc(Cl)c1=O [Compound 53] |  |  |  |  |  | Test G control value (Plasmopara viticola; 2.5 ml/pot): L (L shows the control value of 50% or less); Test E control value (Puccinia recondita): H (H shows the control value more than 50%); Test D control value [1]: L (L shows the control value of 50% or less); Test C control value (Alternaia brassicicola): H (H shows the control value more than 50%); Test B control value (Botrytis cinerea): H (H shows the control value more than 50%)
8 | Cn1c(-c2c(F)cccc2F)c(-n2cc(F)cn2)cc(Cl)c1=O [Compound 461] |  |  |  |  |  | Test G control value (downy mildew on vine) (Plasmopara viticola; 250 ppm spray, 2.5 ml/pot, investigated 7 to 10 days after inoculation): L (L shows the control value of 50% or less); Test E control value (brown rust on wheat) (Puccinia recondita; [2]): H (H shows the control value more than 50%); Test D control value (powdery mildew on barley) [1, 2]: H (H shows the control value more than 50%); Test C control value (Alternaria sooty spot on cabbage) (Alternaia brassicicola; [2]): H (H shows the control value more than 50%); Test B control value (gray mold on tomato) (Botrytis cinerea; [2]): H (H shows the control value more than 50%)
